# Experimental data from paper PMC3630886.
# Sequences of proteins named here, by UniProt entry; tags and fusion partners are left off. A change or cut given only in a name is not applied to a line headed by its entry.
# UniProt P84077: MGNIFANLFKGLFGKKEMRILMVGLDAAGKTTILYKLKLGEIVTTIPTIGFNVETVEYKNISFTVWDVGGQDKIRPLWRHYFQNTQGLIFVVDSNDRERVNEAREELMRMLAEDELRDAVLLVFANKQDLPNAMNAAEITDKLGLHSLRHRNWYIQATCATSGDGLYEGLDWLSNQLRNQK
# UniProt P61204: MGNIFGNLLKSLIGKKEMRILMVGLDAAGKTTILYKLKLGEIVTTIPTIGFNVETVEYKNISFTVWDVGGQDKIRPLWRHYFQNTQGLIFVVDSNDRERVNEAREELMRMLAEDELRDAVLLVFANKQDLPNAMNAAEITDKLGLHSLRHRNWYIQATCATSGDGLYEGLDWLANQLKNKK
# UniProt P18085: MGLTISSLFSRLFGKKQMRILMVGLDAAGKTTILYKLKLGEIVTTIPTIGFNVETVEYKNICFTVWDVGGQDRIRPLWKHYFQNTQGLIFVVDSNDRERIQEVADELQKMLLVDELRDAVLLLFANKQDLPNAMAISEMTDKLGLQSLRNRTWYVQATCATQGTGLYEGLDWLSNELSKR
# These are yes or no findings as the source states them, for the method shown. Binding seen in cells or lysates may run through a third protein. Some binding calls cover weakened binding; strength is not graded here. For some assays here: Where a sequence is shown, tags or fusion partners need not be part of it.
# Assays:
# [1] = molecular target: BIG2 (endogenous) (human (endogenous in HeLa)) (UniProt Q9Y6D5); experiment: co-IP; HeLa cells transfected with HA-tagged ARF mutants for 24 h; endogenous BIG2 immunoprecipitated from cell lysates; input and bound material immunoblotted with anti-HA
# [2] = molecular target: T1, GST chimera containing the DCB (amino acids 1–250) domain of BIG2 (UniProt Q9Y6D5); experiment: pull-down; lysates of HeLa cells transfected with HA-tagged ARF Q71L mutants for 24 h incubated with purified GST or GST chimeras of BIG2; input and bound material immunoblotted with anti-HA; only the target purified
# T1 sequence: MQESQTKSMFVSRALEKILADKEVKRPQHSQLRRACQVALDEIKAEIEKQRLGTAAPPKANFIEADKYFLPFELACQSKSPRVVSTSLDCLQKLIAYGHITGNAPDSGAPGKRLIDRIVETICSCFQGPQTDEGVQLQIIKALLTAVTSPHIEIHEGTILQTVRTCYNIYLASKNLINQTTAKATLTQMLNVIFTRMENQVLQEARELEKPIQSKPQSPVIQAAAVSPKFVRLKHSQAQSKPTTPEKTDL
binding [1],binding [2],Substance
binds,,"ARF1/T31N, HA-tagged (from UniProt P84077 1-181)"
binds weakly,no binding,"ARF3/Q71L, HA-tagged (from UniProt P61204 1-181)"
binds,,"ARF3/T31N, HA-tagged (from UniProt P61204 1-181)"
no binding,,"ARF4/T31N, HA-tagged (from UniProt P18085 1-180)"
